# Data published in the supplement of paper PMC8728848.
# The list shows a part of the results.
# B1: EPL1 (Trichoderma atroviride), A0PCX2 (protein)
# chain: MQLSNLFKLALFTAAVSADTVSYDTGYDDASRSLTVVSCSDGTNGLITRYHWQTQGQIPRFPYIGGAQAVAGWNSPNCGTCWKLTYSGKTIYVLAIDHTAAGFNIGLDAMNALTNGNAVALGRVSATASQVAVSNCGL
# Legend:
# Experiment in all cases: glycan array binding signal (z-score within array); higher = stronger binding
# Conditions in all cases: glycan notation: IUPAC condensed, linker removed
# Fuc(a1-2)Gal = target: Fuc(a1-2)Gal
# In short: (§1)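 The Consortium for Functional Glycomics database supplied 3228 glycan arrays, of which those lacking an available protein sequence were dropped. The binding signal, a within-array Z-score, was averaged across arrays of the same protein sequence and across linkers. Negative scores can be read as non-binding.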
# Fuc(a1-2)Gal(b1-3)GalNAc = target: Fuc(a1-2)Gal(b1-3)GalNAc
# In short: as §1
# [1] = target: Fuc(a1-2)Gal(b1-3)GalNAc(a1-3)[Fuc(a1-2)]Gal(b1-4)Glc
# In short: as §1
# [2] = target: Fuc(a1-2)Gal(b1-3)GalNAc(a1-3)[Fuc(a1-2)]Gal(b1-4)GlcNAc
# In short: as §1
# [3] = target: Fuc(a1-2)Gal(b1-3)GalNAc(b1-3)Gal
# In short: as §1
# [4] = target: Fuc(a1-2)Gal(b1-3)GalNAc(b1-3)Gal(a1-4)Gal(b1-4)Glc
# In short: as §1
# [5] = target: Fuc(a1-2)Gal(b1-3)GalNAc(b1-4)[Neu5Ac(a2-3)]Gal(b1-4)Glc
# In short: as §1
# Fuc(a1-2)Gal(b1-3)GlcNAc = target: Fuc(a1-2)Gal(b1-3)GlcNAc
# In short: as §1
# [6] = target: Fuc(a1-2)Gal(b1-3)GlcNAc(b1-2)Man(a1-3)[Fuc(a1-2)Gal(b1-3)GlcNAc(b1-2)Man(a1-6)]Man(b1-4)GlcNAc(b1-4)GlcNAc
# In short: as §1
# [7] = target: Fuc(a1-2)Gal(b1-3)GlcNAc(b1-2)Man(a1-3)[Fuc(a1-2)Gal(b1-3)GlcNAc(b1-2)Man(a1-6)]Man(b1-4)GlcNAc(b1-4)[Fuc(a1-6)]GlcNAc
# In short: as §1
# [8] = target: Fuc(a1-2)Gal(b1-3)GlcNAc(b1-3)Gal(b1-4)Glc
# In short: as §1
# [9] = target: Fuc(a1-2)Gal(b1-3)GlcNAc(b1-3)GalNAc
# In short: as §1
# [10] = target: Fuc(a1-2)Gal(b1-3)GlcNAc(b1-3)[Fuc(a1-2)Gal(b1-3)GlcNAc(b1-6)]GalNAc
# In short: as §1
# [11] = target: Fuc(a1-2)Gal(b1-3)GlcNAc(b1-3)[Gal(b1-4)GlcNAc(b1-6)]Gal(b1-4)Glc
# In short: as §1
# [12] = target: Fuc(a1-2)Gal(b1-3)GlcNAc(b1-3)[Neu5Ac(a2-6)Gal(b1-4)GlcNAc(b1-6)]Gal(b1-4)Glc
# In short: as §1
# [13] = target: Fuc(a1-2)Gal(b1-3)GlcNAc6S
# In short: as §1
# [14] = target: Fuc(a1-2)Gal(b1-3)[Fuc(a1-4)]GlcNAc
# In short: as §1
# [15] = target: Fuc(a1-2)Gal(b1-3)[Fuc(a1-4)]GlcNAc(b1-2)Man(a1-3)[Fuc(a1-2)Gal(b1-3)[Fuc(a1-4)]GlcNAc(b1-2)Man(a1-3)]Man(b1-4)GlcNAc(b1-4)GlcNAc
# In short: as §1
# [16] = target: Fuc(a1-2)Gal(b1-3)[Fuc(a1-4)]GlcNAc(b1-2)Man(a1-3)[Fuc(a1-2)Gal(b1-3)[Fuc(a1-4)]GlcNAc(b1-2)Man(a1-6)]Man(b1-4)GlcNAc(b1-4)[Fuc(a1-6)]GlcNAc(b1-4)[Fuc(a1-6)]GlcNAc
# In short: as §1
# [17] = target: Fuc(a1-2)Gal(b1-3)[Fuc(a1-4)]GlcNAc(b1-3)[Fuc(a1-3)[Gal(b1-4)]GlcNAc(b1-6)]Gal(b1-4)Glc
# In short: as §1
# [18] = target: Fuc(a1-2)Gal(b1-3)[Fuc(a1-4)]GlcNAc(b1-3)[Gal(b1-4)GlcNAc(b1-6)]Gal(b1-4)Glc
# In short: as §1
# [19] = target: Fuc(a1-2)Gal(b1-4)Fuc(a1-3)]GlcNAc(b1-2)Man(a1-3)[Fuc(a1-2)Gal(b1-4)[Fuc(a1-3)]GlcNAc(b1-2)Man(a1-6)]Man(b1-4)GlcNAc(b1-4)GlcNAc
# In short: as §1
# Fuc(a1-2)Gal(b1-4)Glc = target: Fuc(a1-2)Gal(b1-4)Glc
# In short: as §1
# Fuc(a1-2)Gal(b1-4)Glc6S = target: Fuc(a1-2)Gal(b1-4)Glc6S
# In short: as §1
# Fuc(a1-2)Gal(b1-4)GlcNAc = target: Fuc(a1-2)Gal(b1-4)GlcNAc
# In short: as §1
# [20] = target: Fuc(a1-2)Gal(b1-4)GlcNAc(b1-2)Man
# In short: as §1
# [21] = target: Fuc(a1-2)Gal(b1-4)GlcNAc(b1-2)Man(a1-3)[Fuc(a1-2)Gal(b1-4)GlcNAc(b1-2)Man(a1-6)]Man(b1-4)GlcNAc(b1-4)GlcNAc
# In short: as §1
# [22] = target: Fuc(a1-2)Gal(b1-4)GlcNAc(b1-2)Man(a1-3)[Fuc(a1-2)Gal(b1-4)GlcNAc(b1-2)Man(a1-6)]Man(b1-4)GlcNAc(b1-4)[Fuc(a1-6)]GlcNAc
# In short: as §1
# [23] = target: Fuc(a1-2)Gal(b1-4)GlcNAc(b1-2)[Fuc(a1-2)Gal(b1-4)GlcNAc(b1-4)]Man(a1-3)[Fuc(a1-2)Gal(b1-4)GlcNAc(b1-2)Man(a1-6)]Man(b1-4)GlcNAc(b1-4)GlcNAc
# In short: as §1
# [24] = target: Fuc(a1-2)Gal(b1-4)GlcNAc(b1-3)Gal(b1-4)GlcNAc
# In short: as §1
# [25] = target: Fuc(a1-2)Gal(b1-4)GlcNAc(b1-3)Gal(b1-4)GlcNAc(b1-2)Man(a1-3)[Fuc(a1-2)Gal(b1-4)GlcNAc(b1-3)Gal(b1-4)GlcNAc(b1-2)Man(a1-6)]Man(b1-4)GlcNAc(b1-4)GlcNAc
# In short: as §1
# [26] = target: Fuc(a1-2)Gal(b1-4)GlcNAc(b1-3)Gal(b1-4)GlcNAc(b1-3)Gal(b1-4)GlcNAc
# In short: as §1
# [27] = target: Fuc(a1-2)Gal(b1-4)GlcNAc(b1-3)GalNAc
# In short: as §1
# [28] = target: Fuc(a1-2)Gal(b1-4)GlcNAc(b1-3)[Fuc(a1-2)Gal(b1-4)GlcNAc(b1-6)]GalNAc
# In short: as §1
# [29] = target: Fuc(a1-2)Gal(b1-4)GlcNAc(b1-3)[Fuc(a1-3)[Gal(b1-4)]GlcNAc(b1-6)]Gal(b1-4)Glc
# In short: as §1
# [30] = target: Fuc(a1-2)Gal(b1-4)GlcNAc(b1-6)GalNAc
# In short: as §1
# [31] = target: Fuc(a1-2)Gal(b1-4)GlcNAc6S
# In short: as §1
# [32] = target: Fuc(a1-2)Gal(b1-4)[Fuc(a1-3)]GlcNAc
# In short: as §1
# [33] = target: Fuc(a1-2)Gal(b1-4)[Fuc(a1-3)]GlcNAc(b1-2)Man(a1-3)[Fuc(a1-2)Gal(b1-4)[Fuc(a1-3)]GlcNAc(b1-2)Man(a1-6)]Man(b1-4)GlcNAc(b1-4)[Fuc(a1-6)]GlcNAc
# In short: as §1
# [34] = target: Fuc(a1-2)Gal(b1-4)[Fuc(a1-3)]GlcNAc(b1-2)[Fuc(a1-2)Gal(b1-4)[Fuc(a1-3)]GlcNAc(b1-4)]Man(a1-3)[Fuc(a1-2)Gal(b1-4)[Fuc(a1-3)]GlcNAc(b1-2)Man(a1-6)]Man(b1-4)GlcNAc(b1-4)GlcNAc
# In short: as §1
# [35] = target: Fuc(a1-2)Gal(b1-4)[Fuc(a1-3)]GlcNAc(b1-3)Gal(b1-4)[Fuc(a1-3)]GlcNAc
# In short: as §1
# [36] = target: Fuc(a1-2)Gal(b1-4)[Fuc(a1-3)]GlcNAc(b1-3)Gal(b1-4)[Fuc(a1-3)]GlcNAc(b1-3)Gal(b1-4)[Fuc(a1-3)]GlcNAc
# In short: as §1
# [37] = target: Fuc(a1-2)Gal(b1-4)[Fuc(a1-3)]GlcNAc(b1-3)GalNAc
# In short: as §1
# [38] = target: Fuc(a1-2)Gal(b1-4)[Fuc(a1-3)]GlcNAc(b1-3)[Neu5Ac(a2-6)Gal(b1-4)GlcNAc(b1-6)]Gal(b1-4)Glc
# In short: as §1
# [39] = target: Fuc(a1-2)Gal3S(b1-4)GlcNAc
# In short: as §1
binder,measurement,setting,value
B1,glycan array binding signal (z-score),Fuc(a1-2)Gal,-0.335
same,glycan array binding signal (z-score),Fuc(a1-2)Gal(b1-3)GalNAc,-0.087
same,glycan array binding signal (z-score),[1],-0.272
same,glycan array binding signal (z-score),[2],-0.075
same,glycan array binding signal (z-score),[3],-0.081
same,glycan array binding signal (z-score),[4],0.051
same,glycan array binding signal (z-score),[5],-0.195
same,glycan array binding signal (z-score),Fuc(a1-2)Gal(b1-3)GlcNAc,-0.562
same,glycan array binding signal (z-score),[6],0.479
same,glycan array binding signal (z-score),[7],-0.023
same,glycan array binding signal (z-score),[8],-0.176
same,glycan array binding signal (z-score),[9],0.648
same,glycan array binding signal (z-score),[10],0.416
same,glycan array binding signal (z-score),[11],-0.353
same,glycan array binding signal (z-score),[12],0.304
same,glycan array binding signal (z-score),[13],-0.466
same,glycan array binding signal (z-score),[14],-0.419
same,glycan array binding signal (z-score),[15],0.341
same,glycan array binding signal (z-score),[16],-0.221
same,glycan array binding signal (z-score),[17],-0.315
same,glycan array binding signal (z-score),[18],0.251
same,glycan array binding signal (z-score),[19],0.27
same,glycan array binding signal (z-score),Fuc(a1-2)Gal(b1-4)Glc,-0.442
same,glycan array binding signal (z-score),Fuc(a1-2)Gal(b1-4)Glc6S,0.188
same,glycan array binding signal (z-score),Fuc(a1-2)Gal(b1-4)GlcNAc,-0.506
same,glycan array binding signal (z-score),[20],-0.194
same,glycan array binding signal (z-score),[21],0.448
same,glycan array binding signal (z-score),[22],-0.21
same,glycan array binding signal (z-score),[23],-0.292
same,glycan array binding signal (z-score),[24],0.062
same,glycan array binding signal (z-score),[25],-0.05
same,glycan array binding signal (z-score),[26],-0.711
same,glycan array binding signal (z-score),[27],0.127
same,glycan array binding signal (z-score),[28],-0.049
same,glycan array binding signal (z-score),[29],-0.187
same,glycan array binding signal (z-score),[30],-0.394
same,glycan array binding signal (z-score),[31],0.319
same,glycan array binding signal (z-score),[32],0.212
same,glycan array binding signal (z-score),[33],0.097
same,glycan array binding signal (z-score),[34],-0.296
same,glycan array binding signal (z-score),[35],-0.072
same,glycan array binding signal (z-score),[36],0.232
same,glycan array binding signal (z-score),[37],0.385
same,glycan array binding signal (z-score),[38],0.037
same,glycan array binding signal (z-score),[39],0.62
